“And” between values parts separate entries of the source, which are not always exact repeats. Equal values may be shown once.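 Five concentrations, 48 hours, 96-well plates. The concentration for 50% growth inhibition is given as GI50. The concentration for full growth arrest is given as TGI.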 Square brackets hold non-standard residues; d marks the D form. Peptide text beside a SMILES is read from it. * marks the point of attachment. ξ: configuration not given here. ξD = NC(CC(=O)O)C(=O)O; Boc = CC(C)(C)OC(=O)*; Aib = CC(C)(N)C(=O)O; OBn = c1ccc(CO*)cc1
Test system: NCI-H322M lung
Assay: NCI tumour cell line growth inhibition, 48 h

SMILES	TGI	GI50 [µM]
Cc1nc2ccc(Cl)cc2c2c1CCN2c1ccc(F)cc1	> 100 µM	–
Cc1[nH]c2ccccc2c1CO	73.9 µM	19.2
Oc1nc(N2CCOCC2)sc1/C=C1\C=Nc2ccccc21	> 100 µM	> 100
O=C1CN=C(c2ccc[nH]2)c2cc(Cl)ccc2N1	> 100 µM	> 100
O=C(O)c1cnc2c(ccc3[nH]cccc32)c1=O	> 100 µM	–
CC[C@@]1(O)CC(OC2CC(N3CCOCC3)C(O)C(C)O2)c2c(O)c3c(c(O)c2[C@H]1O)C(=O)c1cccc(O)c1C3=O (some centres not stated)	3.36 µM and 3.9 µM	–
Fc1cc2nc3n(c2cc1F)C(c1c(F)cccc1F)SC3 (configuration not stated)	> 100 µM	–
N#Cc1c(N)nc2c(c1-c1ccc(Cl)cc1)COc1ccc(F)cc1-2	> 100 µM	30.2
CC(C)C1=Cc2ccc3c(c2C(=O)C1=O)CCCC3	24.8 µM	–
COc1cc(OCCN(C)C)c2[nH]c(C(=O)N3CC(CCl)c4c3cc(N)c3ccccc43)cc2c1 (configuration not stated)	1.39 µM	–
Nc1ccc(Oc2ccc(C34CC5CC(C3)CC(c3ccc(Oc6ccc(N)cc6C(F)(F)F)cc3)(C5)C4)cc2)c(C(F)(F)F)c1	44.6 µM	–
O=c1[nH]c2nc3ccccc3c(=O)n2/c1=C/c1ccccc1	> 100 µM	–
O=C1CCCc2ccc([N+](=O)[O-])c(O)c21	> 100 µM	–
CN(C)CC1(C)CC/C(=C\c2ccc(Cl)cc2)C1=O (configuration not stated)	> 100 µM	–
c1ccc(/C(=N\Nc2nc3ccccc3[nH]2)c2ccccn2)cc1	2.58 µM	–
O=C1Nc2cccc(Cl)c2/C1=C\c1cccnc1	33.8 µM	–
CC(C(=O)NCNC(=O)c1ccccc1)C(=O)Nc1ccccc1 (configuration not stated)	> 100 µM	–
Cc1[nH]c2ncn3[nH]c(=S)nc3c2c1Cc1ccccc1	> 100 µM	–
Cc1ccc(-c2cc(C(=O)Nc3ccc(S(=O)(=O)N4CCCCC4)cc3)[nH]n2)c(O)c1	> 100 µM	> 100
CC(C)[C@@]12C[C@@H](OC(=O)C3CO3)[C@@](C)(O1)[C@@H]1CC[C@@H](C)[C@H]1[C@@H]2OC(=O)/C=C/c1ccccc1 (some centres not stated)	28.9 µM	14.4
Cc1cccc2c(N)c3cccc(C(=O)NCC[N+](C)(C)Cc4ccccc4[N+](=O)[O-])c3nc12	> 59.2 µM	–
COc1cc(-n2cc(-c3ccc(Cl)cc3)n(-c3ccccc3)c2=O)cc(OC)c1OC	> 100 µM	48.7
COc1cc([C@@H]2c3cc4c(cc3[C@@H](NCc3ccccc3F)C3COC(=O)[C@@H]32)OCO4)cc(OC)c1O (some centres not stated)	> 100 µM	–
Cc1cc(C)c2c(=O)n(CC(O)CN(Cc3ccccc3)CC(O)Cn3sc4nc(C)cc(C)c4c3=O)sc2n1 (configuration not stated)	33.7 µM	–
ClCc1ccccc1Cn1cnc2nc(Cl)nc(Cl)c21	19.7 µM	5.57
Cc1ncc(C(=O)Nc2ccc(CN3CCN(C)CC3)c(C(F)(F)F)c2)cc1C#Cc1cnc(N)c2ccc(C#N)cc12	13.4 µM	0.0579

SMILES	TGI	GI50 [µM]
NC(=O)N/N=C\CC(O)(C(F)(F)Cl)C(F)(F)Cl	> 10 µM	–
NCCCN(CCCCN(CCCN)Cc1ccccc1)Cc1ccccc1	> 100 µM	–
CC1(C)CN(CC(=O)O)CC(Cc2ccc(OCC(=O)O)cc2)N(CC(=O)O)CC(C)(C)SS1 (configuration not stated)	> 100 µM	–
CC(C)(C)OC(=O)NC(CC(=O)OCc1ccccc1)C(=O)NC(C)(C)C(N)=O (configuration not stated) (Boc-[ξD](OBn)-[Aib]-NH2)	> 100 µM	–
C[n+]1c2ccccc2c(N=[N+]=[N-])c2ccccc21	> 10 µM	–
COc1ccc(-c2cnc(-c3ccc(OC)cc3)n2-c2cc(OC)c(OC)c(OC)c2)cc1	70.3 µM	28.2
O=C(O)CCC(NC(=O)c1ccc(Oc2nc3ccccc3nc2C(=O)O)cc1)C(=O)O (configuration not stated)	> 100 µM	–
Nc1nc(Cl)c(N)c(NCC2(CO)CCC(OCc3ccccc3)C2)n1 (configuration not stated)	> 100 µM	–
Cn1cnc([N+](=O)[O-])c1S(=O)(=O)Oc1ccc(Cl)cc1	> 100 µM	62.9
Cc1ccc(S(=O)(=O)N(CCN)c2cc3c4c(c2)Oc2cccc5c2C4c2c(cccc2O3)O5)cc1	> 100 µM	–
O=S(=O)(CC(Cl)c1ccccc1)c1nc2ccccc2s1 (configuration not stated)	32.5 µM	–
CCOc1ccc(N(CC(=O)N2CC(=O)Nc3cc(C)c(C)cc32)C(C)=O)cc1	> 100 µM	–
COc1c(Sc2c(SCSc3cnc4ccccc4c3Sc3cnc4ccccc4c3OC)cnc3ccccc23)cnc2ccccc12	> 100 µM	–
Cc1[nH]c(C(=O)Nc2ccc(C(=O)NCCN)cc2OC(C)C)c(Cl)c1Cl	2.98 µM	1.61
CC(=O)C1C(=O)C(=O)N(c2ccc([N+](=O)[O-])cc2[N+](=O)[O-])C1=O (configuration not stated)	> 100 µM	–
COC(=O)C(Cc1nc2ccc(Cl)cc2[nH]c1=O)C(=O)C(=O)Nc1cc(C)ccc1C (configuration not stated)	> 100 µM	–
COCN1C(=O)[C@@H]2C[C@@H](O)CN2C(=O)c2ccccc21	> 100 µM	–
Cc1cc(-c2nc3sc(C)cn3c2/C=N/N=C(N)N)c(C)s1	16.7 µM	5.74
NC(=O)N/N=C(\CC1OC(=O)c2ccccc21)c1ccc([N+](=O)[O-])cc1 (configuration not stated)	90.4 µM	–
COc1cc(OC)c(C(=O)/C=C/c2ccc(C#N)cc2)c(OC)c1	5.47 µM	1.25
CN(CCNC(=O)c1cn(C)c2c1ccc1ccccc12)CCNC(=O)c1cn(C)c2c1ccc1ccccc12	> 24.9 µM	–
CCCN(CCC)c1ccc(/C=N/NC(=O)c2cccnc2)c(C)c1	40.9 µM	17.7
Cc1c(-c2ccccc2)c(C#N)c2nnn(-c3ccc(Cl)cc3)c(=O)n12	> 100 µM	–
COc1ccc(OC2(c3cc(OC)ccc3OC)OC(=O)c3ccccc32)cc1 (configuration not stated)	> 100 µM	–
COc1ccc(Sc2[nH]c(C=O)c3ccccc23)cc1	50.6 µM	8.14
